About 2,200 (0.71%) of roughly 310,000 compounds showed an effect of 50% or more. Effects have a minus sign here. This is one part of the list.
target: human ether-à-go-go-related gene (hERG) potassium channel (human, UniProt Q12809); assay: primary screen, population patch clamp on CHO cells stably expressing hERG
Sequence (Q12809 whole entry, looked up): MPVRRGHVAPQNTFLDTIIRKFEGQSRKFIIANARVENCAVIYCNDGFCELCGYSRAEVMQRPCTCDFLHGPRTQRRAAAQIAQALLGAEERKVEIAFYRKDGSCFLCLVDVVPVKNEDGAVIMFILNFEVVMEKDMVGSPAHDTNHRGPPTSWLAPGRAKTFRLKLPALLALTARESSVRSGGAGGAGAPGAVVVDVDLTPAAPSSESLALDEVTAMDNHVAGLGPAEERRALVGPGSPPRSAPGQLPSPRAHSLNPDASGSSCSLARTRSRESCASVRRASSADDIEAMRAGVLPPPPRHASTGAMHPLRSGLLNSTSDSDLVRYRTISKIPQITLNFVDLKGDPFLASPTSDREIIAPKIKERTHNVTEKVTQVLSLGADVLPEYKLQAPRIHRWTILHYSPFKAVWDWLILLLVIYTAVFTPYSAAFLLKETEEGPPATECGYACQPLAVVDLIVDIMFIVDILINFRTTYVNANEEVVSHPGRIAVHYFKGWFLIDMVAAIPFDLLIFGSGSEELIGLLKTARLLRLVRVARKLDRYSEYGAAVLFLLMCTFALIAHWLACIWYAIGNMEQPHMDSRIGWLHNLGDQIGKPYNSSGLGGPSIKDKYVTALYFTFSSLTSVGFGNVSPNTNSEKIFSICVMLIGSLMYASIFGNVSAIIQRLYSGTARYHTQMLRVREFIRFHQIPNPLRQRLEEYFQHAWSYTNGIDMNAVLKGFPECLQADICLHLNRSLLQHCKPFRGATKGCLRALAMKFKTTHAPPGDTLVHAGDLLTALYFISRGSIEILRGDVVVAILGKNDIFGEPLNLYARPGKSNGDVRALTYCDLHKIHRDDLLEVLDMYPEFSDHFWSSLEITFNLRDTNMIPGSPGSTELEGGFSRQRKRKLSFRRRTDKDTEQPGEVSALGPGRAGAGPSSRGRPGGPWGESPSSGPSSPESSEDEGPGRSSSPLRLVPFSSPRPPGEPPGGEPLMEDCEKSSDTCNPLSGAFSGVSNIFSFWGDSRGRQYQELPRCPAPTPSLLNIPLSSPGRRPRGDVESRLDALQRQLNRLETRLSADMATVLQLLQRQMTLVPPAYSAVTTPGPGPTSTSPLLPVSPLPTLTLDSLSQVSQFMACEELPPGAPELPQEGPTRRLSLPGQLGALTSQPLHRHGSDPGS

Compared with `O=C1CCCN1C(=O)COc1ccccc1[N+](=O)[O-]`, `CC(OC(=O)c1cc(=O)[nH]c2ccccc12)C(=O)NC1CCCC1` (stereo not drawn) is lower in “hERG current change (%, negative = inhibition) at 1uM” value: 11% for the first, 2.91% for the second.

First: O=C(Nc1ccc(F)cc1)c1cncs1
Second: COc1ccccc1NC(=O)/C(=N/OCc1ccc(F)cc1)C(C)=O
The “hERG current change (%, negative = inhibition) at 1uM” value of the first is lower: 3.62% for the first, 19.4% for the second.

Compared with `COC(=O)c1ccccc1NC(=O)Cn1cnc2c(cnn2-c2ccccc2)c1=O`, `COc1ccc(Nc2ncnc3c2cnn3-c2ccccc2)cc1OC` is lower in “hERG current change (%, negative = inhibition) at 1uM” value: 6.01% for the first, 2.27% for the second.

Compared with `Cc1ccc(-c2ccc(=O)n(Cc3ccc(F)cc3Cl)n2)cc1`, `Cc1ccc(Cn2ccc(NC(=O)c3cc(CC(C)C)on3)n2)cc1` is lower in “hERG current change (%, negative = inhibition) at 1uM” value: 11.6% for the first, 5.93% for the second.

First: CC(=O)Nc1ccc(NC(=O)C(C)OC(=O)c2ccc3ccccc3n2)cc1 (stereo not drawn)
Second: Cc1ccccc1OCC(=O)Nc1cccc(NC(=O)c2ccco2)c1
The “hERG current change (%, negative = inhibition) at 1uM” value of the first is higher: 11.5% for the first, 8.48% for the second.

First: CC1(C)Cc2c(c(N3CCOCC3)nc3sc(C(=O)Nc4ccccc4)c(N)c23)CO1
Second: O=C(Nc1ccc(N2CCOCC2)c(Cl)c1)c1ccc(-n2cnnc2)cc1
The “hERG current change (%, negative = inhibition) at 1uM” value of the first is lower: 7.99% for the first, 9.75% for the second.

Compared with `O=c1cc(CN2CCN(S(=O)(=O)c3ccc4ccccc4c3)CC2)nc2sccn12`, `O=C(COc1ncnc2ccccc12)Nc1ccc(S(=O)(=O)N2CCOCC2)cc1` is higher in “hERG current change (%, negative = inhibition) at 1uM” value: 5.94% for the first, 13.2% for the second.

First: Cc1ccc(S(=O)(=O)n2nc(-c3cccnc3)nc2N)cc1
Second: Cc1ccc(CCNS(=O)(=O)c2cc(Br)cnc2N)cc1
The “hERG current change (%, negative = inhibition) at 1uM” value of the first is lower: 7.94% for the first, 11.7% for the second.

Compared with `NS(=O)(=O)c1ccc(NC(=O)COC(=O)c2cn(-c3ccccc3)nc2-c2ccc(F)cc2)cc1`, `Cc1ccc(NC(=O)c2ccc(CN3CCc4ccccc4C3)cc2)cc1` is higher in “hERG current change (%, negative = inhibition) at 1uM” value: 4.75% for the first, 11.9% for the second.

First: CCC(C)(C)NC(=O)CN(Cc1cccs1)C(=O)C(=O)Nc1ccc2c(c1)OCCO2
Second: COC(=O)c1ccc(C)c(NS(=O)(=O)c2ccc3c(c2)OCCO3)c1
The “hERG current change (%, negative = inhibition) at 1uM” value of the first is higher: 5.02% for the first, 0.932% for the second.

First: O=C(c1cc2cc(Br)cc(Br)c2oc1=O)N1CCCC1
Second: O=C(c1cc2ccccc2oc1=O)N(Cc1cccc(Br)c1)C1CCS(=O)(=O)C1 (stereo not drawn)
The “hERG current change (%, negative = inhibition) at 1uM” value of the first is lower: 3.81% for the first, 8.86% for the second.

First: Cc1cccc(COCC(Cc2ccccc2)N2CCN(C(=O)c3cc(Cl)cc(Cl)c3)CCC2=O)c1 (stereo not drawn)
Second: CC(=O)c1cccc(CN2CCC(CO)(Cc3ccccc3)CC2)c1
The “hERG current change (%, negative = inhibition) at 1uM” value of the first is lower: -8.49% for the first, 7.16% for the second.

Compared with `CC1(C)N(O)C2CCCCC2N1O` (stereo not drawn), `CS(=O)(=O)N(CC(=O)NC1CCCCC1)Cc1ccc(Cl)cc1` is lower in “hERG current change (%, negative = inhibition) at 1uM” value: 1.72% for the first, 1.17% for the second.

Going from `N/C(=N\OC(=O)/C=C/c1ccccc1)c1ccncc1` to `Cc1ccc(OCCNC(=O)/C=C/c2ccccc2)cc1`, the “hERG current change (%, negative = inhibition) at 1uM” value rises from -24.3% to 4.51%.

Compared with `Cl.Clc1ccc(CN2CCNCC2)cc1`, `CCc1ccc(C(C)(O)C(CN2CCOCC2)c2ccccc2)cc1.Cl` (stereo not drawn) is lower in “hERG current change (%, negative = inhibition) at 1uM” value: 12.3% for the first, 8.26% for the second.

Going from `O=C(NNS(=O)(=O)c1ccccc1)C(O)(c1ccccc1)c1ccccc1` to `O=C(NCc1ccccn1)c1cc(-c2ccccc2)nc2ccccc12`, the “hERG current change (%, negative = inhibition) at 1uM” value falls from 17.3% to -6.96%.

First: C/C(=N/NC(=S)Nc1cccc(C)c1)c1cccc([N+](=O)[O-])c1
Second: CC(=O)Nc1cccc(-c2nnc3c4ccccc4c(C)nn23)c1
The “hERG current change (%, negative = inhibition) at 1uM” value of the first is higher: 10.4% for the first, 0.606% for the second.

First: O=S(=O)(c1ccccc1)c1cnc(-c2ccccc2)nc1N1CCCC1
Second: O=C(NCCc1nc(-c2ccccc2Cl)no1)c1ccccc1
The “hERG current change (%, negative = inhibition) at 1uM” value of the first is higher: 23.9% for the first, 8.45% for the second.

First: c1ccc2c(C3CCO3)cccc2c1 (stereo not drawn)
Second: CCCN(CCC)Cc1cc2ccccc2c2c1COC2
The “hERG current change (%, negative = inhibition) at 1uM” value of the first is higher: 9.87% for the first, -14.2% for the second.

First: CCN(CC(=O)Nc1c(F)cccc1F)C(=O)CCC(=O)c1ccc(C)cc1
Second: CCOc1ccc(C(=O)NCCCCNC(=O)c2ccc(OCC)cc2)cc1
The “hERG current change (%, negative = inhibition) at 1uM” value of the first is lower: 10.1% for the first, 21.1% for the second.

Compared with `Cc1cccnc1NC(=O)c1cc2c(=O)oc3ccccc3c2s1`, `Cc1cc(C)nc(Nc2nc(=O)c3ccccc3s2)n1` is lower in “hERG current change (%, negative = inhibition) at 1uM” value: 18.2% for the first, 9.49% for the second.

Compared with `COCCNC(=O)C(c1ccc(C)o1)N(C(=O)c1snc(C(N)=O)c1N)c1ccc(C)cc1` (stereo not drawn), `COc1ccc(CNC(=O)[C@H](C)NC(=O)C2CC(=O)N(c3ccc(OC)cc3)C2)cc1` (stereo partly drawn) is higher in “hERG current change (%, negative = inhibition) at 1uM” value: -0.564% for the first, 12.3% for the second.

Going from `CCN(CC)S(=O)(=O)c1ccc(N(C)Cc2cccc(OC)c2OC)nc1` to `CCN(CC)S(=O)(=O)c1ccc2c(c1)c(=O)c(C(=O)N1CCc3ccccc3C1)cn2C`, the “hERG current change (%, negative = inhibition) at 1uM” value falls from 12.6% to -21.2%.

Compared with `COc1ccc(NC(=O)C2CCN(c3nc(C)cc(C)n3)CC2)cc1`, `COc1ccc(CCNC(=O)C2CCN(C(=O)c3cccc(Cl)c3)CC2)cc1OC` is higher in “hERG current change (%, negative = inhibition) at 1uM” value: -12.9% for the first, 19.3% for the second.

First: CC(=O)c1c(C)[nH]c(C(=O)CSc2ncnc3sc(-c4ccccc4)cc23)c1C
Second: CCc1ccccc1NC(=S)/N=C(\N)Nc1nc(C)c2cc(C)ccc2n1
The “hERG current change (%, negative = inhibition) at 1uM” value of the first is higher: 7.89% for the first, -1.21% for the second.

Going from `NC(=O)c1ccc(N=Cc2c(O)n(Cc3ccco3)c(=O)[nH]c2=O)cc1` to `CCOC(=O)c1cccc(NC(=O)c2c(N)n(C)c(=O)[nH]c2=O)c1`, the “hERG current change (%, negative = inhibition) at 1uM” value rises from -5.15% to 13%.

Compared with `O=C(N/C(=C/c1ccccc1Cl)C(=O)N1CCCCC1)c1ccco1`, `O=C(NCC(=O)N(c1cccc(F)c1)C(C(=O)NC1CCCC1)c1ccncc1)c1ccco1` (stereo not drawn) is lower in “hERG current change (%, negative = inhibition) at 1uM” value: 19.8% for the first, 8.29% for the second.

Compared with `COC(=O)/C=C1\N/C(=N\c2nc(C)cc(C)n2)N(c2ccc(C)cc2)C1=O`, `CCOC(=O)c1nn(-c2ccc(Cl)cc2)c2nc(CC)c(C#N)c(=O)n12` is higher in “hERG current change (%, negative = inhibition) at 1uM” value: -9.7% for the first, -2.56% for the second.

Going from `CCCn1c(SCC(=O)N2CCOCC2)nnc1-c1ccncc1` to `CCOc1ccccc1N1CCN(C(=O)[C@@H]2CCCN2C2=NS(=O)(=O)c3ccccc32)CC1`, the “hERG current change (%, negative = inhibition) at 1uM” value falls from 5.28% to 2.01%.

Going from `O=C(C1=C[C@@H](C2CCCCC2)C[C@@H](OCCCCO)O1)N1CCN(Cc2ccc3c(c2)OCO3)CC1` to `O=C1CCc2cc(S(=O)(=O)N3CCC(C(=O)NC4CCCCCCC4)CC3)ccc2N1`, the “hERG current change (%, negative = inhibition) at 1uM” value rises from -6.55% to 10.9%.

Compared with `CCC(O)(C#CCN1CCCCC1)CC`, `CCCS(=O)(=O)N1CCC(C(=O)NCC2CCCO2)CC1` (stereo not drawn) is lower in “hERG current change (%, negative = inhibition) at 1uM” value: 6.11% for the first, -3.78% for the second.

Compared with `CCNc1nc(NOC)nc(OCC#N)n1`, `COc1cc(C(=O)OCC(=O)NC2CC2)cc(OC)c1OC` is lower in “hERG current change (%, negative = inhibition) at 1uM” value: 9.54% for the first, 5.87% for the second.

Going from `CCC(C)Sc1nc2c(c(=O)[nH]1)C(c1cccs1)C1=C(CCCC1=O)N2` (stereo not drawn) to `COc1ccc(C(=O)NCC2CCCN2S(=O)(=O)c2cccs2)cc1OC` (stereo not drawn), the “hERG current change (%, negative = inhibition) at 1uM” value rises from -1.94% to 8.28%.

First: CC(C)OCCCNS(=O)(=O)c1ccc2c(c1)oc(=O)n2C
Second: CCNC(=O)CC1C(=O)N(c2cccc(C)c2)C(=O)N1CCC(C)C (stereo not drawn)
The “hERG current change (%, negative = inhibition) at 1uM” value of the first is higher: 13.5% for the first, -15.2% for the second.

First: COc1ccc(/C=N/NC(=O)c2cc(-c3ccccc3OC)nc3ccccc23)cc1COC(C)=O
Second: COc1ccc(OC)c(/C=N/NC(=O)c2csc3ccccc23)c1
The “hERG current change (%, negative = inhibition) at 1uM” value of the first is higher: 15% for the first, 4.56% for the second.

Going from `OC(CNCc1ccco1)Cn1c2ccccc2c2ccccc21` (stereo not drawn) to `COC(=O)CNC(c1ccccc1)c1cc(C)ccc1NC(=O)CNC(=O)OCc1ccccc1` (stereo not drawn), the “hERG current change (%, negative = inhibition) at 1uM” value rises from -7.72% to 5.03%.

Going from `CC(NC(=O)COC(=O)Cc1ccsc1)c1ccccc1` (stereo not drawn) to `COc1ccccc1CNC(=O)C1CCN(C(=O)N(C)C)CC1`, the “hERG current change (%, negative = inhibition) at 1uM” value rises from 1.58% to 3.9%.

Compared with `O=C(Nc1cc(Br)ccc1O)c1cc(-c2ccco2)on1`, `Cc1cc(NC(=O)COC(=O)c2oc3c(Cl)cccc3c2C)no1` is lower in “hERG current change (%, negative = inhibition) at 1uM” value: 14.2% for the first, 5.54% for the second.

Compared with `COc1cccc(NC(=O)CCNS(=O)(=O)c2ccc(Br)s2)c1`, `Cc1ccc(CCC(=O)Nc2ncc(Cc3cc(Cl)ccc3Cl)s2)o1` is higher in “hERG current change (%, negative = inhibition) at 1uM” value: 5.53% for the first, 12.4% for the second.

Going from `Cc1ccc2nsnc2c1S(=O)(=O)N(CCO)Cc1cc2cc3c(cc2[nH]c1=O)OCCO3` to `CCOc1ccc(C(=O)NCC(=O)OCc2cc([N+](=O)[O-])cc3c2OCOC3)cc1OCC`, the “hERG current change (%, negative = inhibition) at 1uM” value falls from 11.7% to -20%.

First: CC(C)c1cccc(C(C)C)c1NC(=O)CN1C(=O)NC2(CCCCCCC2)C1=O
Second: COc1cc(C)ccc1OCCCON1C(=O)CCC1=O
The “hERG current change (%, negative = inhibition) at 1uM” value of the first is higher: 8.87% for the first, 8.74% for the second.

Going from `O=C(NC(Cc1c[nH]c2ccccc12)C(=O)O)/C(=C\c1ccc2c(c1)OCO2)NC(=O)c1ccccc1` (stereo not drawn) to `CN(C)C=O.COc1ccc(NC(=O)COC(=O)c2cc(OC)c(OC)cc2NC(=O)c2ccco2)cc1OC`, the “hERG current change (%, negative = inhibition) at 1uM” value rises from 3.23% to 15.6%.

First: COc1cc(C)ccc1OCCOCCOc1cc(C)c(C)cc1Br
Second: CC(=O)C(Cc1cnc(Cl)s1)(Cc1cnc(Cl)s1)C(C)=O
The “hERG current change (%, negative = inhibition) at 1uM” value of the first is higher: 9.18% for the first, 1.44% for the second.

With `Nc1nc2c(ncn2C2C[C@H](O)[C@@H](CO)O2)c(=O)[nH]1` (stereo partly drawn) the “hERG current change (%, negative = inhibition) at 1uM” value was 9.96%.

— PMC4336329 (PLoS ONE, 2015)
